Assay results reported in PubChem BioAssay AID588453 (National Center for Advancing Translational Sciences (NCATS), 2011).
Several values for one entry are separate records, joined by “and”; a condition that tells them apart may be missing. Identical values can stand only once. Hit rate of the full screen: of about 390,000 compounds, about 4,000 (1%) were called active. This list was built around the results that the source calls inconclusive (neither active nor inactive); the mix of calls is not that of the screen. Calls come from the whole dose curve; as a rule, active = well fitted inhibition curve with a large enough effect; inconclusive = small, poorly fitted or top-dose-only effect; inactive = no such curve, though single readings can be large or run the other way. Where the call is inconclusive, the potency comes from a doubtful curve fit.

Molecular target: Thioredoxin reductase 1, cytoplasmic (Rattus norvegicus) (UniProt O89049)
Chain of UniProt O89049 (O89049 whole entry, looked up): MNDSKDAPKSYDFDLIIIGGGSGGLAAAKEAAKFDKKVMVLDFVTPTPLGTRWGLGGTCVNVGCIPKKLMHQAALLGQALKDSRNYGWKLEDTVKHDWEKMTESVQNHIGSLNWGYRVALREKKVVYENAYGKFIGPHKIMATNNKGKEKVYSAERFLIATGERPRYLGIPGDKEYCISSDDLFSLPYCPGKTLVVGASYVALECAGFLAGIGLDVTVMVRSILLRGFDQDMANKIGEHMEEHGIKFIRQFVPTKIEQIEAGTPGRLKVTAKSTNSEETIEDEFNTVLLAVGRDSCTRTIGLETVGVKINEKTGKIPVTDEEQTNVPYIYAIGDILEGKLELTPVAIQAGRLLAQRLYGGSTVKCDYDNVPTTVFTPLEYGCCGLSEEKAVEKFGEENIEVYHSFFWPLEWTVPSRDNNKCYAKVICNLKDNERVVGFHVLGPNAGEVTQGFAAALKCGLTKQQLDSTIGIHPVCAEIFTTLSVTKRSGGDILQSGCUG
Experiment: qHTS Assay for Inhibitors of Mammalian Selenoprotein Thioredoxin Reductase 1 (TrxR1): qHTS; note: nearly all actives have a fitted effect of over 65% in size
Conditions: recombinant rTrxR1, NADPH fluorescence consumption, selenite substrate; series mostly up to 114 µM; activity change, negative = inhibition: at the top concentration
Outline: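 Rat TrxR1 (90 nM in the dispensed reagent) was pre-reduced with 400 uM NADPH for 5 min at room temperature, then incubated with compound for 15 min. After 400 uM selenite was added, NADPH fluorescence (Ex 340/Em 450 nm) was followed for 8 min.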
% is set by controls: 0 for no effect and ±100 for the full control effect; potency is the fitted concentration of half-maximal effect; tags give direction and shape of the fitted curve.

Structure (SMILES) | Potency | activity change, negative = inhibition
CC(=O)c1c(C)[nH]c(C(=O)/C(C#N)=C/c2cccc(C)c2)c1C | inconclusive: 28.2 µM [inhibitor, partial curve] | 
CC1=NN(c2ccccc2)C(=O)/C1=C\c1ccc(Br)s1 | inconclusive: 25.1 µM [inhibitor, partial curve, poor fit] | 
Nc1nc(=S)c2ncn(C3CCCCC3)c2[nH]1 |  | inactive: -4.22% [at 2.29 µM]
CC(C)CC(=O)NC(=S)NNC(=O)c1ccc(NC(=O)C2CCCCC2)cc1 | inconclusive: 35.5 µM [inhibitor, partial curve, poor fit] | 
O=C(CSc1nccn1-c1cccc(Cl)c1)Nc1ccc2c(c1)OCO2 |  | inactive: 13.3% [at 57.1 µM]
c1coc(Cn2c(-c3ccco3)nc3ccccc32)c1 | active: 3.16 µM | 
COc1nc(OC)nc(N2CCC(C(=O)NCc3ccc(F)cc3)CC2)n1 |  | inactive: 26.3%
COc1cc2[nH]c3c(=O)n(CCN(C(C)C)C(C)C)cnc3c2cc1OC |  | inactive: -17.7%
COc1cccc(C(=O)NCc2n[nH]c(=S)n2-c2cccc(C)c2)c1 | inconclusive: 2.82 µM [inhibitor, partial curve, poor fit] | 
COc1cc2cc3c(N)c(C(=O)Nc4sc(C)c(C)c4C#N)sc3nc2cc1OC |  | inactive: 9.68%
CCn1c(SCC(=O)Nc2cc(C)c(Cl)cc2OC)nnc1-c1ccco1 | inconclusive: 39.8 µM [inhibitor, single point] | 
CC(C)c1cc(C(=O)N2CCN(C(c3ccccc3)c3ccccc3)CC2)no1 | inconclusive: 89.1 µM [inhibitor, partial curve, poor fit] | 
Brc1ccc(-c2noc(COc3ccc4c(c3)CCC4)n2)o1 | inconclusive: 11.2 µM [inhibitor, partial curve, poor fit] | 
N[C@@H](Cc1cc(I)c(Oc2ccc(O)c(I)c2)c(I)c1)C(=O)O | inconclusive: 50.1 µM [inhibitor, partial curve] | 
COc1cc(C(C2=C(O)CC(C)(C)CC2=O)C2C(=O)CC(C)(C)CC2=O)cc(OC)c1OC (stereo not drawn) | inconclusive: 22.4 µM [inhibitor, partial curve] | 
CC1=C(C(=O)OCC2CCCO2)C(c2cccc(C(F)(F)F)c2)C2=C(CC(c3ccco3)CC2=O)N1 (stereo not drawn) | inconclusive: 50.1 µM [inhibitor, partial curve] | 
O=C(Nc1ccccc1Br)C(=O)N1CCCC1 | inconclusive: 89.1 µM [inhibitor, single point] | 
O=Cc1ccc2noc(-c3ccc(F)cc3)c2c1 | inconclusive: 56.2 µM [inhibitor, single point] | 
O=c1c2cccc(Cl)c2nc2n1Cc1ccccc1-2 | inconclusive: 39.8 µM [inhibitor, single point] | 
Cc1ccc(NCc2ccccc2O)cc1 |  | inactive: 12.2%
Cc1cc(C)c2c(c1)NC(C(=O)O)C1CC=CC21 (stereo not drawn) | active: 3.16 µM and active: 3.98 µM | 
Cc1ccc(S(=O)(=O)c2ccc([N+](=O)[O-])cn2)cc1 | active: 0.447 µM | 
Cc1ccc(-c2ccccc2)n1-c1ccc(C(=O)O)cc1 | inconclusive: 70.8 µM [inhibitor, single point] | 

Structure (SMILES) | Potency | activity change, negative = inhibition
O=C(Nc1ccc2oc(=O)ccc2c1)c1ccc(-c2ccc(Cl)cc2)o1 | inconclusive: 79.4 µM [inhibitor, partial curve, poor fit] | 
Cc1ccc(Nc2nc(N)c([N+](=O)[O-])c(NCCO)n2)cc1 | inconclusive: 79.4 µM [inhibitor, single point] | 
Cc1ccc(N=c2c([N+](=O)[O-])nn(-c3ccccc3)n2O)c(C)c1 | inconclusive: 31.6 µM [inhibitor, single point] | 
C(=C\c1ccccc1)/CSc1nnc(-c2ccccn2)n1Cc1ccco1 | inconclusive: 31.6 µM [inhibitor, single point] | 
CC(C)(O)C#Cc1ccc(C(=O)N2CCC(C(N)=O)(N3CCCCC3)CC2)o1 | inconclusive: 79.4 µM [inhibitor, single point] | 
COc1ccc(C(=O)CCN2CCN(c3ccc(OC)cc3)CC2)cc1 | active: 2.82 µM | 
CC(C)CC(=O)NC(=S)Nc1ccc(N2CCOCC2)c(Cl)c1 | inconclusive: 50.1 µM [inhibitor, partial curve] | 
CCOc1ccc(-n2nc3ccc(N)cc3n2)cc1 | inconclusive: 25.1 µM [inhibitor, single point] | 
Cc1ccccc1NC(=O)CSc1nnc(-c2ccco2)n1N |  | inactive: 5.62% [at 57.1 µM]
CC(=O)N1CCc2cc(S(=O)(=O)CCC(=O)Nc3ccc(C)cc3Br)ccc21 |  | inactive: -11.6%
Cc1cc(C(=O)OCC(=O)c2ccc(Cl)c([N+](=O)[O-])c2)c2cccc(C)c2n1 | inconclusive: 50.1 µM [inhibitor, partial curve] | 
CC1(C)CC2(CC(c3ccccc3)Oc3cc(O)ccc32)NC(=S)N1 (stereo not drawn) |  | inactive: -5.16%
CCN(CCS(=O)(=O)c1ccc(Cl)cc1)Cc1nc2ccccc2c(=O)[nH]1 | inconclusive: 70.8 µM [inhibitor, partial curve] | 
Cc1ccc(C(C)C)c(OCC(O)CN2CCN(c3ccccc3F)CC2)c1 (stereo not drawn) |  | inactive: -0.174%
O=C(Cc1ccccc1)NNC(=S)NC(=O)c1cccs1 | inconclusive: 31.6 µM [inhibitor, single point] | 
O=C(/C=C/c1c(Cl)cccc1Cl)n1cccn1 | inconclusive: 44.7 µM [inhibitor, partial curve, poor fit] | 
Cc1cccc(S(=O)(=O)N2CCn3cccc3C2C)c1 (stereo not drawn) | inconclusive: 56.2 µM [inhibitor, partial curve, poor fit] | 
CCCc1cc(-n2ccnc2C)n2c(nc3ccccc32)c1C#N |  | inactive: 3.85%
O=C(NC(=S)NC(c1ccccc1)c1ccncc1)c1ccccc1 (stereo not drawn) | inconclusive: 14.1 µM [inhibitor, full curve, poor fit] | 
COC(=O)c1ccc2c(=O)n(CCCCCC(=O)NCCc3ccc(Cl)cc3)c(=O)[nH]c2c1 |  | inactive: 2.31% [at 57.1 µM]
CCCn1nnc(NC(=S)NC(=O)/C=C/c2ccco2)n1 | inconclusive: 25.1 µM [inhibitor, single point] | 
O=C(CC1C(=O)NCCN1Cc1cccc(Oc2ccccc2)c1)NCCc1cnccn1 (stereo not drawn) | inconclusive: 44.7 µM [inhibitor, partial curve] | 
O=C(N/N=C/c1ccc(-c2ccc(S(=O)(=O)Nc3ncccn3)cc2)o1)c1cc2ccccc2cc1O | inconclusive: 15.8 µM [inhibitor, single point] | 

Structure (SMILES) | Potency | activity change, negative = inhibition
O=c1cc(Br)c(O)c(Br)cc1Br | active: 3.16 µM | 
Cc1noc(C)c1CSCC(=O)N1CCN(c2ccc(F)cc2)CC1 | inconclusive: 79.4 µM [inhibitor, partial curve] | 
Cc1onc(-c2ccccc2Cl)c1C(=O)Nc1nnc(C2CCCCC2)s1 |  | inactive: 11.4%
O=C(NCc1ccccc1)c1cccn1-c1nnc(N2CCCCC2)s1 |  | inactive: 5.1% [at 57.1 µM]
COCC(C)n1c(COc2ccccc2F)nnc1SCC(=O)Nc1oc(C)c2c(C)n[nH]c(=O)c12 (stereo not drawn) | inconclusive: 70.8 µM [inhibitor, partial curve] | 
COc1cc(OC)c2c(c1C(CCN1CCCC1)c1ccc(N(C)C)cc1)OC(=O)CC2c1ccc(N(C)C)cc1 (stereo not drawn) | inconclusive: 25.1 µM [inhibitor, partial curve, poor fit] | 
Cn1cc(Cl)c(C(=O)NC(=S)Nc2sc3c(c2C#N)CCCCC3)n1 | inconclusive: 5.62 µM [inhibitor, partial curve] | 
COc1ccccc1-c1cc2nc(C)c(CCC(=O)NCc3ccco3)c(C)n2n1 | inconclusive: 79.4 µM [inhibitor, single point] | 
CCn1c(SCC(=O)NCc2ccco2)nnc1C1CCCC1 | inconclusive: 70.8 µM [inhibitor, partial curve] | 
CNC(=O)COC(=O)c1ccccc1C(=O)c1ccc(Cl)c([N+](=O)[O-])c1 | inconclusive: 79.4 µM [inhibitor, partial curve, poor fit] | 
CCOC(=O)c1cccc(-c2ccc(C=O)o2)c1 | inconclusive: 3.98 µM [inhibitor, full curve] | 
Cc1ccc(S(=O)(=O)Oc2ccc3c(c2)O/C(=C\c2cccnc2)C3=O)cc1 |  | inactive: 5.27%
COc1ccc(N2CSC3=C(C#N)C(c4cccc(OC)c4OC)CC(=O)N3C2)cc1 (stereo not drawn) | inconclusive: 12.6 µM [inhibitor, partial curve] | 
COc1ccc(-c2nc(=S)[nH][nH]2)cc1OC | inconclusive: 1.58 µM [inhibitor, partial curve, poor fit] | 
COCCNC(=O)CSc1nc2ccc(N3CCOCC3)cc2c(=O)n1Cc1ccc(OC)cc1 | inconclusive: 31.6 µM [inhibitor, partial curve, poor fit] | 
CCN(CC)CCCNC(=O)c1cn(CC)c2ccc(S(=O)(=O)N3CCC(C)CC3)cc2c1=O |  | inactive: 16.9%
Cc1c(Cc2ccccc2)c(=O)oc2c(CN(C)C)c(O)c(Cl)cc12 | inconclusive: 63.1 µM [inhibitor, single point] | 
CC(C)c1ccc(NC(=O)C2CC2c2ccccc2)cc1 (stereo not drawn) |  | inactive: 4.41%
CCCCCC(=O)NC(=S)NNC(=O)c1ccc([N+](=O)[O-])cc1 | inconclusive: 15.8 µM [inhibitor, full curve] | 
Cc1cccc(NC(=O)CSc2nc3c([nH]c4ccccc43)c(=O)n2-c2cc(C)cc(C)c2)c1 |  | inactive: 16% [at 57.1 µM]
Cc1ccc(/C=C/C(=O)c2ccccc(=O)c2O)cc1C | inconclusive: 25.1 µM [inhibitor, single point] | 
N#Cc1c(-c2ccc(Cl)cc2)cc(-c2ccccc2)nc1SCC(=O)O |  | inactive: 0.52%
